Test results reported in PubChem BioAssay AID485341 (National Center for Advancing Translational Sciences (NCATS), 2010).
The whole screen tested about 330,000 compounds, of which about 1,700 (0.52%) were called active. The inconclusive results got no clear call from the source; some entries with a clear call stand among them for comparison. The call rests on the fitted dose curve; in most records, active means well fitted inhibition curve with a large enough effect; inconclusive means small, poorly fitted or top-dose-only effect; inactive means no such curve, though single readings can be large or run the other way. Potencies beside an inconclusive call are fits to weak or partial responses and may not hold up.
Further: nearly all actives have a fitted effect of over 20% in size.
Potency means the concentration at half of the fitted maximal effect; tags describe the fitted curve by direction and shape.

Each compound was assayed against Beta-lactamase (Escherichia coli (strain K12)) (UniProt P00811) (assay: qHTS Inhibitors of AmpC Beta-Lactamase (assay without detergent)). Details: AmpC nitrocefin hydrolysis, absorbance 480 nm, 0.0001% Triton; series mostly up to 57.1 µM.
Chain of UniProt P00811 (P00811 whole entry, looked up): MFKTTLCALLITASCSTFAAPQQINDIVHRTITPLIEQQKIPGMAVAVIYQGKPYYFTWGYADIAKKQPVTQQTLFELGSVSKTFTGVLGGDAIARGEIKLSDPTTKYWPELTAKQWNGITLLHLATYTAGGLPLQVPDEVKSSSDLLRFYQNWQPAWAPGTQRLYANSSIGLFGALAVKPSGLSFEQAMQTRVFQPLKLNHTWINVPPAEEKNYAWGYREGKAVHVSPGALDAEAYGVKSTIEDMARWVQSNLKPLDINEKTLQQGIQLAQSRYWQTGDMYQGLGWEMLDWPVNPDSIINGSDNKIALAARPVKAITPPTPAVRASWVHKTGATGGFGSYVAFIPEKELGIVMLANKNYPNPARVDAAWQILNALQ
How it was run: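 AmpC (5.3 nM in the dispensed reagent) in 20 mM phosphate pH 7.0 with 0.01% (detergent screen) or 0.0001% Triton X-100 was preincubated with compounds for 15 min at room temperature. Nitrocefin was then added from an 800 uM solution, and hydrolysis was followed at 480 nm.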
`Cn1cc(CN2CCN(c3ncccn3)CC2)c(-c2cccc(Cl)c2)n1` was tested, and the Potency was “inactive”.
`CC(C)[C@H](NC(=O)c1ccccc1Cl)C(=O)Nc1ccc(S(=O)(=O)Nc2nccs2)cc1` was tested, and the Potency was inconclusive: 2.82 µM [inhibitor, partial curve].
For `COC(=O)CCCC1=CC2=C(c3ccccc3)C(=O)C(C)(OC(=O)C3CCCC3)C(=O)C2=CN1C1CCCC1` (stereo not given), the Potency was “inactive”.
With `COc1cc(/C=N/NC(=O)CCOc2ccccc2C)cc(Br)c1O` the Potency was active: 22.4 µM.
In the case of `COc1ccccc1NC1=NC(c2ccc(Cl)cc2)N=C(N)N1` (stereo not given), the Potency was inconclusive: 5.01 µM [inhibitor, single point].
For `Cc1cccc(N2CCN(C(=S)NCc3ccco3)CC2)c1C`, the Potency was inconclusive: 7.94 µM [inhibitor, full curve, poor fit].
For `CCCc1cc(=O)oc2cc(OCC(=O)Nc3ccc(S(N)(=O)=O)cc3)ccc12`, the Potency was active: 28.2 µM.
`O=C(CSc1ccc(-c2nc3ccccc3[nH]2)cn1)Nc1ccc2c(c1)OCCO2` was tested, and the Potency was active: 0.562 µM.
In the case of `Oc1ccc2ccccc2c1C=NC12CN3CCN(CN(C3)C1)C2`, the Potency was “inactive”.
For `O=C(CCNS(=O)(=O)c1cccs1)N1CCc2ccccc2C1`, the Potency was “inactive”.
For `Cc1sc(-n2c(C)cc(/C=C3\SC(=S)NC3=O)c2C)c(C#N)c1C`, the Potency was active: 14.1 µM.
With `Cn1c(/C(C#N)=C/c2ccc(-c3ccc(S(N)(=O)=O)cc3)o2)nc2ccccc21` the Potency was active: 20 µM.
`COC(=O)C1=C(C)N(C)C(C)=C(C(=O)OC)C1c1ccc(Cl)cc1` was tested, and the Potency was “inactive”.
`Cc1ccc(C)c(N(C(=O)Cc2cccs2)C(C(=O)NC2CCCC2)c2ccc(C)o2)c1` (stereo not given) was tested, and the Potency was inconclusive: 3.98 µM [inhibitor, single point].
In the case of `COc1ccc(OCC(=O)NNc2c3ccccc3nc3ccccc23)cc1`, the Potency was inconclusive: 6.31 µM [inhibitor, single point].
`O=C(CCCOc1ccc(Br)cc1)Nc1ccc(S(=O)(=O)N2CCOCC2)cc1` was tested, and the Potency was inconclusive: 28.2 µM [inhibitor, single point].
`Cc1nnc(NC(=O)CSc2nc(C(C)C)nc3ccccc23)s1` was tested, and the Potency was inconclusive: 1.12 µM [inhibitor, partial curve, poor fit].
With `C#CCn1c(=NC(=O)c2ccc(Cl)s2)sc2cccc(OC)c21` the Potency was inconclusive: 0.355 µM [inhibitor, full curve, poor fit].
In the case of `CCN(CC)S(=O)(=O)c1cccc(NC(=O)CNc2cccc(S(=O)(=O)N3CCCC3)c2)c1`, the Potency was active: 28.2 µM.
In the case of `O=c1[nH]c(CN2CCN(S(=O)(=O)/C=C/c3ccccc3)CC2)nc2cc(Cl)ccc12`, the Potency was “inactive”.
`CC1=C(C(=O)Nc2ccc(C)cc2C)C(c2cccs2)NC(=S)N1` (stereo not given) was tested, and the Potency was inconclusive: 0.631 µM [inhibitor, partial curve, poor fit].
For `O=C(NCCS(=O)(=O)N1CCN(c2ccccc2)CC1)c1cccc(F)c1`, the Potency was inconclusive: 35.5 µM [inhibitor, single point].
`O=C(Cc1cccc2ccccc12)Nc1ccc(-c2cc3ccccc3oc2=O)cc1` was tested, and the Potency was inconclusive: 2.51 µM [inhibitor, partial curve, poor fit].
With `O=C(Nc1cccc(S(=O)(=O)N2CCCCC2)c1)c1ccc(S(=O)(=O)C(F)F)cc1` the Potency was active: 22.4 µM.
`C[C@@H](NC(=O)c1nc[nH]c1C(=O)N[C@@H](Cc1ccccc1)C(=O)OC(C)(C)C)c1ccccc1` was tested, and the Potency was “inactive”.
In the case of `O=C(Nc1ccc(Cl)c([N+](=O)[O-])c1)c1ccc2c(c1)OCCO2`, the Potency was “inactive”.
In the case of `CC(OC(=O)c1cc2ccccc2cc1O)C(=O)Nc1ccc(S(N)(=O)=O)cc1` (stereo not given), the Potency was inconclusive: 12.6 µM [inhibitor, partial curve].
In the case of `O=C(C1CC(c2ccc(F)cc2)=NO1)N1CCCCC1` (stereo not given), the Potency was “inactive”.
With `Cc1csc(NC(=O)CSc2nc(=O)n(CCCN(C)C)c3c2CCC3)n1` the Potency was inconclusive: 39.8 µM [inhibitor, single point].
For `CCCn1nc2cc(C(=O)NCc3ccc(OC(F)(F)F)cc3)ccc2c1OCC`, the Potency was inconclusive: 5.62 µM [inhibitor, partial curve, poor fit].
`CCCN(CCC)CCCNc1ccc2nnc(-c3ccc(F)cc3)n2n1` was tested, and the Potency was inconclusive: 44.7 µM [inhibitor, partial curve, poor fit].
For `Cc1ccc(O)c(C(=O)c2cc(C#N)c(=O)n(Cc3ccccc3)c2)c1`, the Potency was inconclusive: 1.78 µM [inhibitor, full curve, poor fit].
With `COc1ccc(Cc2nnc(NC(=O)Cc3cccs3)s2)cc1` the Potency was inconclusive: 4.47 µM [inhibitor, full curve, poor fit].
For `O=c1[nH]c2c(s1)C(c1ccc(O)cc1)C1C3CCC(C3)C1S2` (stereo not given), the Potency was active: 44.7 µM.
In the case of `Cc1nc(NC(=O)c2ccccc2)sc1-c1csc(Nc2cccc(Cl)c2)n1`, the Potency was active: 14.1 µM.
With `CCc1ccc(NC(=O)Nc2cccs2)cc1` the Potency was inconclusive: 14.1 µM [inhibitor, partial curve].
For `CCCn1cc(SCC(=O)NCc2ccc3c(c2)OCO3)c2ccccc21`, the Potency was inconclusive: 0.316 µM [inhibitor, full curve, poor fit].
`O=C(/C=C/c1ccco1)c1ccc(NC(=O)C23CC4CC(CC(C4)C2)C3)cc1` was tested, and the Potency was active: 17.8 µM.
In the case of `CCOC(=O)c1cc(-c2cccc([N+](=O)[O-])c2)nc2[nH]c(=O)[nH]c(=O)c12`, the Potency was “inactive”.
With `COc1ccc(CNC(=O)C2CC(c3cccc([N+](=O)[O-])c3)=NO2)cc1` (stereo not given) the Potency was “inactive”.
For `Cc1ccc(NC(=S)Nc2ccc(C(C)C)cc2)cc1S(=O)(=O)N1CCCCCC1`, the Potency was inconclusive: 2 µM [inhibitor, full curve, poor fit].
`Cc1ccc(NC(=O)c2cc(S(=O)(=O)N3CCCCC3)c[nH]2)cc1C` was tested, and the Potency was active: 7.08 µM.
With `O=c1[nH]c(=O)n(Cc2ccc(F)cc2)c(O)c1/C=N/Nc1ccccc1` the Potency was inconclusive: 25.1 µM [inhibitor, single point].
`COc1ccc(-c2csc(N(CC3CCCO3)C(=O)c3cccs3)n2)cc1` (stereo not given) was tested, and the Potency was “inactive”.
`Cc1cc(C(=O)Nc2c(C)n(C)n(-c3ccccc3)c2=O)c(C)o1` was tested, and the Potency was active: 0.158 µM.
